{"source": "PubChem BioAssay AID485281", "about": "(National Center for Advancing Translational Sciences (NCATS), 2010)", "note": "Screen size: about 350,000 compounds; about 260 (0.074%) were called active. Inconclusive means that the source gave no clear call. Such entries were picked first, then a sample of the others. Calls come from the whole dose curve; as a rule, active = well fitted inhibition curve with a large enough effect; inconclusive = small, poorly fitted or top-dose-only effect; inactive = no such curve, though single readings can be large or run the other way. Potencies of inconclusive entries are doubtful fits and often do not repeat. % is set by controls: 0 for no effect and ±100 for the full control effect; potency is the fitted concentration of half-maximal effect; tags give direction and shape of the fitted curve.", "data": [{"biological_target": "Ferritin light chain (Equus caballus) (UniProt P02791)", "sequence (P02791 whole entry, looked up)": "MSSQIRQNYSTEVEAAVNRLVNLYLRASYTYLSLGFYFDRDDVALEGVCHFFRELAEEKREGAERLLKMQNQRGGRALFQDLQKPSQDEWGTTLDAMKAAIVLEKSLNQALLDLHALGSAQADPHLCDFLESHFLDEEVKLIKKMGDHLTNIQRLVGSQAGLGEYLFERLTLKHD", "assay": "qHTS Assay for Identification of Novel General Anesthetics; note: nearly all actives have a fitted effect of over 20% in size", "conditions": "apoferritin/1-aminoanthracene competitive binding, fluorescence; activity change, negative = displacement: at 77.5 µM (top of the series)", "in_short": "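10 uM apoferritin + 50% sat. 1-AMA, PBS; cpd 10 min RT; Ex380/Em535 endpoint; normalized to free probe vs complex; 4-param Hill fit; propofol titration as pos. ctrl.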", "values": [{"smiles": "Cc1c(Cl)cccc1-n1c(SCC(=O)NCc2ccccc2Cl)nnc1-c1ccncc1", "Potency": "inconclusive: 14.1 µM [inhibitor, partial curve]"}, {"smiles": "O=C(Cc1cccc2ccccc12)N1CCCc2ccccc21", "Potency": "inconclusive: 17.8 µM [inhibitor, partial curve]"}, {"smiles": "Cc1ccc(-c2nc3c(c(SCC(=O)N4CCOCC4)n2)Cc2c(CO)cnc(C)c2O3)cc1", "Potency": "inconclusive: 31.6 µM [inhibitor, partial curve]"}, {"smiles": "Cc1cccc(NC(=O)C2CCCN(C(=O)Nc3ccccc3)C2)c1C", "note": "(stereo not given)", "activity change, negative = displacement": "inactive: -3.91%"}, {"smiles": "CCn1cnc2cc(NCc3cccs3)ccc21", "Potency": "inconclusive: 39.8 µM [inhibitor, partial curve]"}, {"smiles": "O=C(CN1CCCC1)N/N=C/c1ccc(-c2cccc(Cl)c2)o1", "Potency": "inconclusive: 20 µM [inhibitor, partial curve]"}, {"smiles": "O=C(CCc1nc2cccnc2n1Cc1cccs1)Nc1cccc(Cl)c1", "activity change, negative = displacement": "inactive: -7.65%"}, {"smiles": "Cc1cc(C)n(Cc2ccccc2F)c(=O)c1C#N", "Potency": "inconclusive: 44.7 µM [inhibitor, single point]"}, {"smiles": "COC(=O)CNC(=S)NC(=O)c1ccc(C(C)(C)C)cc1", "Potency": "inconclusive: 39.8 µM [inhibitor, single point]"}, {"smiles": "COc1ccc(C(NC(=O)/C=C/c2ccco2)c2ccc(OC)c(OC)c2)cc1", "note": "(stereo not given)", "activity change, negative = displacement": "inactive: 9.24%"}, {"smiles": "CCn1cc(C(=O)NCc2ccc(C)cc2)c(=O)c2cc(S(=O)(=O)N3CCCCCC3)ccc21", "Potency": "inconclusive: 7.94 µM [inhibitor, partial curve]"}, {"smiles": "Cc1ccc(S(=O)(=O)N(C(=O)c2ccncc2)c2ccc(OC(=O)c3ccncc3)c3ccccc23)c(C)c1", "Potency": "inconclusive: 11.2 µM [inhibitor, partial curve]"}, {"smiles": "CSc1nsc(/C=C/Nc2ccc(F)cc2)c1C#N", "activity change, negative = displacement": "inactive: -6.49%"}, {"smiles": "CC(C)CCn1c(=O)c2ccccc2c2ccccc2c1=O", "Potency": "inconclusive: 28.2 µM [inhibitor, single point]"}, {"smiles": "Cn1cc(S(=O)(=O)N2CCCCCC2)cc1C(=O)NCc1ccccc1Cl", "activity change, negative = displacement": "inactive: 53.1%"}, {"smiles": "C=C(C)CC(Nc1ccc(OC)cc1)c1ccco1", "note": "(stereo not given)", "Potency": "inconclusive: 35.5 µM [inhibitor, partial curve]"}, {"smiles": "COc1cccc(/C=N\\NC(=O)c2cc(OCC(F)(F)F)ccc2OCC(F)(F)F)c1", "Potency": "inconclusive: 39.8 µM [inhibitor, partial curve]"}, {"smiles": "CC(C)(C)OC(=O)N1CCC(c2c(C(=O)NCc3cccs3)cnn2-c2ccc(F)cc2F)CC1", "Potency": "inconclusive: 5.01 µM [inhibitor, partial curve]"}, {"smiles": "Fc1ccc(CO/N=C2\\CCCc3nonc32)cc1", "Potency": "inconclusive: 31.6 µM [inhibitor, single point]"}, {"smiles": "CCCCn1nnnc1SCC(=O)c1ccc(C)c(C)c1", "Potency": "inconclusive: 8.91 µM [inhibitor, partial curve]"}, {"smiles": "CCN(CC)C(=O)c1sc(NC(=O)C(C)Sc2nc(-c3ccccc3)cc(C(F)(F)F)n2)c(C(=O)OC)c1C", "note": "(stereo not given)", "Potency": "inconclusive: 3.55 µM [inhibitor, full curve]"}, {"smiles": "CC(C)NCCCOc1ccc(C(C)(C)c2ccccc2)cc1", "Potency": "inconclusive: 35.5 µM [inhibitor, partial curve]"}, {"smiles": "COc1ccccc1/C=C/C(=O)c1ccc(Cl)cc1", "Potency": "inconclusive: 20 µM [inhibitor, partial curve]"}, {"smiles": "COc1cc(S(=O)(=O)N2CCOCC2)cc(C(=O)c2nccn2C)c1OC", "Potency": "inconclusive: 44.7 µM [inhibitor, single point]"}, {"smiles": "CCOC(=O)c1c(-c2ccccc2)csc1NC(=O)c1nc(S(=O)(=O)CC)ncc1Cl", "Potency": "inconclusive: 2 µM [inhibitor, full curve, poor fit]"}, {"smiles": "COc1ccc(CCNC(=O)COC(=O)C23CC4CC(CC(Br)(C4)C2)C3)cc1", "Potency": "inconclusive: 11.2 µM [inhibitor, partial curve]"}, {"smiles": "O=c1[nH]c2ccc(Cl)cc2c(-c2ccccc2)c1CN1CCOCC1", "Potency": "inconclusive: 15.8 µM [inhibitor, partial curve]"}, {"smiles": "Cc1ccc(SCC(=O)N2N=CCC2c2ccccc2)cc1", "note": "(stereo not given)", "Potency": "inconclusive: 11.2 µM [inhibitor, partial curve]"}, {"smiles": "O=C(Nc1ccc(N2CCCC2)cc1)c1ccc(Br)o1", "Potency": "inconclusive: 35.5 µM [inhibitor, single point]"}, {"smiles": "Cc1cccc2c1cnn2C(=O)CCC(=O)NCC(C)c1ccccc1", "note": "(stereo not given)", "Potency": "inconclusive: 35.5 µM [inhibitor, partial curve]"}, {"smiles": "Nc1cc(=O)nc(SCC(=O)Nc2cccc(Cl)c2)n1CCc1ccccc1", "Potency": "inconclusive: 31.6 µM [inhibitor, partial curve]"}, {"smiles": "Cc1c(NC(=O)CSc2nnc(C(C)Oc3ccc(Cl)cc3)n2-c2ccccc2)c(=O)n(-c2ccccc2)n1C", "note": "(stereo not given)", "Potency": "inconclusive: 31.6 µM [inhibitor, single point]"}, {"smiles": "O=C(/C=C/c1ccccc1)Nc1ccc(C(=O)N2CCCCC2)cc1", "Potency": "inconclusive: 31.6 µM [inhibitor, partial curve]"}, {"smiles": "O=C(CC(=O)N/N=C/c1cccs1)NCc1ccccc1", "Potency": "inconclusive: 22.4 µM [inhibitor, partial curve]"}, {"smiles": "Cc1ccc(CC(=O)N2CCN(c3cccc(C(F)(F)F)c3)CC2)cc1", "activity change, negative = displacement": "inactive: -20.1%"}, {"smiles": "Cc1ccc(CSc2nnnn2C)cc1", "Potency": "inconclusive: 56.2 µM [inhibitor, single point]"}, {"smiles": "COc1ccc(N(Cc2cccs2)C(=O)Nc2ccccc2)cc1", "activity change, negative = displacement": "inactive: -6.43%"}, {"smiles": "N#Cc1ccccc1CN1C(=O)S/C(=C/c2cccn2-c2cccc(C(=O)O)c2)C1=O", "Potency": "inconclusive: 44.7 µM [inhibitor, partial curve]"}, {"smiles": "COc1ccc(CNc2cc([N+](=O)[O-])ccc2OC)cc1", "Potency": "inconclusive: 39.8 µM [inhibitor, partial curve]"}, {"smiles": "Cc1ccc(CNS(=O)(=O)c2cc(C(=O)Nc3cccc(C(F)(F)F)c3)ccc2F)cc1", "Potency": "inconclusive: 1.26 µM [inhibitor, full curve]"}, {"smiles": "CC1CCN(C(=O)c2cc3ccccc3o2)CC1", "activity change, negative = displacement": "inactive: -17.2%"}, {"smiles": "O=C(CSCc1ccc(Cl)cc1)NN=C1CCCC1", "Potency": "inconclusive: 28.2 µM [inhibitor, single point]"}, {"smiles": "COc1ccc(CNCCC(c2ccccc2)c2ccc(OC(C)C)cc2)cc1OC", "note": "(stereo not given)", "Potency": "inconclusive: 56.2 µM [inhibitor, single point]"}, {"smiles": "COc1ccc(NC(=O)/C(C#N)=C\\C=C\\c2ccco2)cc1", "Potency": "inconclusive: 35.5 µM [inhibitor, single point]"}, {"smiles": "O=C(CSc1ccccc1)N/N=C/c1ccccc1O", "Potency": "inconclusive: 31.6 µM [inhibitor, partial curve]"}, {"smiles": "Cc1cc(CNC(=O)c2cc(COc3ccc(F)c(F)c3)on2)nn1C", "Potency": "inconclusive: 15.8 µM [inhibitor, partial curve]"}, {"smiles": "Cc1nc(Cl)sc1C(=O)Nc1ccc(C(C)(C)C)cc1", "Potency": "inconclusive: 20 µM [inhibitor, partial curve]"}, {"smiles": "CC(C)c1ccc(C(=O)NNC(=O)C2C3CCC(C3)C2C(=O)O)cc1", "note": "(stereo not given)", "Potency": "inconclusive: 25.1 µM [inhibitor, partial curve]"}, {"smiles": "Cc1cccc(NNC(N)=S)c1C", "Potency": "inconclusive: 20 µM [inhibitor, partial curve]"}, {"smiles": "CC(C)c1ccc(S(=O)(=O)c2cnc(SCC(=O)Nc3cccc(C(F)(F)F)c3)nc2N)cc1", "Potency": "inconclusive: 11.2 µM [inhibitor, full curve, poor fit]"}, {"smiles": "Cc1ccc(NC(=S)N/N=C2\\CC3CC=CC23)c(C)c1", "note": "(stereo not given)", "Potency": "inconclusive: 31.6 µM [inhibitor, single point]"}, {"smiles": "COC(=O)c1sccc1S(=O)(=O)N1CCN(c2ccccc2OC)CC1", "Potency": "inconclusive: 31.6 µM [inhibitor, partial curve]"}, {"smiles": "O=C(Nc1ccc2nc(SCCOc3ccccc3Cl)sc2c1)c1cccs1", "activity change, negative = displacement": "inactive: -0.877%"}, {"smiles": "CCC1=Nc2cc(C(=O)NCc3ccco3)ccc2Sc2ccccc21", "Potency": "inconclusive: 56.2 µM [inhibitor, single point]"}, {"smiles": "CCOc1cc(N2CCOCC2)c(OCC)cc1NC(=O)c1cc(-c2ccco2)nc2ccccc12", "Potency": "inconclusive: 12.6 µM [inhibitor, full curve, poor fit]"}, {"smiles": "Cc1nn(Cc2ccc(F)cc2Cl)c(C)c1[N+](=O)[O-]", "Potency": "inconclusive: 35.5 µM [inhibitor, single point]"}, {"smiles": "CN(CC(=O)Nc1ccc(Cl)c(C(F)(F)F)c1)C(=O)Cc1cccs1", "Potency": "inconclusive: 56.2 µM [inhibitor, single point]"}, {"smiles": "O=C(CSc1ncnc2sc3c(c12)CCCCC3)NCc1ccco1", "Potency": "inconclusive: 12.6 µM [inhibitor, partial curve]"}, {"smiles": "Cc1cccc([C@H]2[C@@H]3C=CCC[C@@]3(C)C(=O)N2Cc2ccccc2)c1", "Potency": "inconclusive: 31.6 µM [inhibitor, partial curve]"}, {"smiles": "CC(C)(C)c1ccc(/C=N/NC(=S)NCc2ccccc2)cc1", "activity change, negative = displacement": "inactive: 4.39%"}, {"smiles": "Cc1[nH]c2ccccc2c1/C=N\\NC(=O)CNc1ccc2c(c1)OCO2", "Potency": "inconclusive: 44.7 µM [inhibitor, single point]"}, {"smiles": "Cc1ccc(C)c(NC(=S)NNC(=S)Nc2ccc(C(C)C)cc2)c1", "Potency": "inconclusive: 15.8 µM [inhibitor, partial curve]"}, {"smiles": "Cn1nc([N+](=O)[O-])nc1Sc1nnc(-c2ccccc2)o1", "Potency": "inconclusive: 35.5 µM [inhibitor, single point]"}, {"smiles": "CC(=O)NC12CC3CC(C1)CC(C(=O)OCC(=O)Nc1ncc(Cl)cc1Cl)(C3)C2", "Potency": "inconclusive: 39.8 µM [inhibitor, partial curve]"}, {"smiles": "Cc1ccc(S(=O)(=O)N2CCN(C(=O)c3ccccc3)C2C(C)C)cc1", "note": "(stereo not given)", "Potency": "inconclusive: 56.2 µM [inhibitor, single point]"}]}]}
